Patent US20250223314A1 (UCL BUSINESS, published 2025)

Biological target: Tocilizumab (IgG1)
Test: SPR (Biacore), tocilizumab immobilised via EDC/NHS on CM5 chip, receptor as analyte

Tocilizumab (IgG1), sequence (chain, as listed by the source, chain 1 of 2): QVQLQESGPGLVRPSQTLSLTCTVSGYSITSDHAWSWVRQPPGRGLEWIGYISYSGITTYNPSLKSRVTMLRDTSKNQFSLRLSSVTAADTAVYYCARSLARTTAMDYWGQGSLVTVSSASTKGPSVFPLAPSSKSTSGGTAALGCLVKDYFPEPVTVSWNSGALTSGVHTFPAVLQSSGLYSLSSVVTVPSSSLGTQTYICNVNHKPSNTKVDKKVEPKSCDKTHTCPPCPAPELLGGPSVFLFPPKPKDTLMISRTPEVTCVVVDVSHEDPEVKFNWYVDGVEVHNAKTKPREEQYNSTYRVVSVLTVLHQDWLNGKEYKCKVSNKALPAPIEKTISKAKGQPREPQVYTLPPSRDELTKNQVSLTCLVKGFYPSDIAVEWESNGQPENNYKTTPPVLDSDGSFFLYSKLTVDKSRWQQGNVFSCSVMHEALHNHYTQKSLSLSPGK
Tocilizumab (IgG1), sequence (chain, as listed by the source, chain 2 of 2): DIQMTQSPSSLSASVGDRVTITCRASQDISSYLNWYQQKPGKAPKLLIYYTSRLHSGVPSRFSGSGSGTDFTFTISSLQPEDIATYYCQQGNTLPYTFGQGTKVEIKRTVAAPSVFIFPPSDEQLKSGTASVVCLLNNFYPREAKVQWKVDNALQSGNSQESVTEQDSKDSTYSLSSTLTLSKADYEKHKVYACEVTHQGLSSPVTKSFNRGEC

B1: single-domain WT FcγRIIIa (receptor)
chain: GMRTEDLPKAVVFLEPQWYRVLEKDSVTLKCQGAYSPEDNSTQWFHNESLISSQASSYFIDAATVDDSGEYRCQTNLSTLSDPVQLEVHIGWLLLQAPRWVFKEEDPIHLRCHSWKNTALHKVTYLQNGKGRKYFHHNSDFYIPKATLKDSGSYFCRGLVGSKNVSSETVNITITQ
Q: B1 was tested. Which Kd did it give?
A: 56 nM
